Measured values published in the supplement of paper PMC4604168 (melanoma cell lines).
The list shows a part of the results. Single values are uncertain, as repeats are few or missing.

Key:
Test in all cases: cell count relative to DMSO control; melanoma cells; higher = more viable cells
Conditions in all cases: library dose: low library concentration; 72 h
COLO792 = test system: COLO792
COLO800 = test system: COLO800
COLO829 = test system: COLO829
G361 = test system: G361
IPC-298 = test system: IPC-298
IST-MEL1 = test system: IST-MEL1
LB2518-MEL = test system: LB2518-MEL
LOXIMVI = test system: LOXIMVI
MEL-HO = test system: MEL-HO
MZ2-MEL = test system: MZ2-MEL
MeWo = test system: MeWo
RPMI7951 = test system: RPMI7951
RVH-421 = test system: RVH-421
SkMel28 = test system: SkMel28
SkMel2 = test system: SkMel2
SkMel30 = test system: SkMel30
SkMel5 = test system: SkMel5
UACC257 = test system: UACC257
UACC62 = test system: UACC62
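Note: cell number obtained by counting DAPI-stained nuclei in high-throughput microscope images with image analysis software, screen run in 1,536-well plates.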

| SMILES | cell count (COLO792) | cell count (COLO800) | cell count (COLO829) | cell count (G361) | cell count (IPC-298) | cell count (IST-MEL1) | cell count (LB2518-MEL) | cell count (LOXIMVI) | cell count (MEL-HO) | cell count (MZ2-MEL) | cell count (MeWo) | cell count (RPMI7951) | cell count (RVH-421) | cell count (SkMel28) | cell count (SkMel2) | cell count (SkMel30) | cell count (SkMel5) | cell count (UACC257) | cell count (UACC62) |
| --- | --- | --- | --- | --- | --- | --- | --- | --- | --- | --- | --- | --- | --- | --- | --- | --- | --- | --- | --- |
| Cn1cc(C2=C(c3cn(C4CCN(Cc5ccccn5)CC4)c4ccccc34)C(=O)NC2=O)c2ccccc21 [Enzastaurin] + O=c1cc(-c2cccc3c2Sc2ccccc2S3)oc(N2CCOCC2)c1 [KU55933] (first compound 0.8 µM, partner dose 1 µM) | 83% | 60% | 115% | 90.6% | 98.5% | 105% | 120% | 137% | 95.7% | 96.6% | 107% | 94.5% | 87.6% | 111% | 101% | 104% | 106% | 87.9% | 90.6% |
| Cn1cc(C2=C(c3cn(C4CCN(Cc5ccccn5)CC4)c4ccccc34)C(=O)NC2=O)c2ccccc21 [Enzastaurin] + COc1cc2c(Oc3ccc4[nH]c(C)cc4c3F)ncnc2cc1OCCCN1CCCC1 [cediranib] (first compound 0.8 µM, partner dose 0.4 µM) | 89.4% | 113% | 97.5% | 103% | 110% | 101% | 82.6% | 147% | 103% | 98.5% | 101% | 73.9% | 80.7% | 105% | 94.2% | 111% | 91.6% | 106% | 95.5% |
| C[As](C)SC[C@H](NC(=O)CC[C@H](N)C(=O)O)C(=O)NCC(=O)O [Darinaparsin] + NCC(=O)Nc1ccc(-n2nc(C(F)(F)F)cc2-c2ccc3c(ccc4ccccc43)c2)cc1 [OSU03012] (first compound 0.4 µM, partner dose 1 µM) | 89.4% | 76.6% | 93.6% | 112% | 93.2% | 100% | 107% | 109% | 93.3% | 104% | 62.6% | 93.8% | 108% | 102% | 91.6% | 44.8% | 91.5% | 111% | 87.5% |
| N.N.[Cl][Pt][Cl] [cisplatin] + COC(=O)c1sccc1S(=O)(=O)Nc1ccc(Nc2ccccc2)cc1OC [GSK0660] (first compound 1.6 µM, partner dose 1 µM) | 101% | 103% | 134% | 116% | 102% | 93.5% | 89.4% | 157% | 106% | 97.1% | 98.8% | 98.3% | 117% | 109% | 95.7% | 104% | 99.5% | 111% | 101% |
| C[As](C)SC[C@H](NC(=O)CC[C@H](N)C(=O)O)C(=O)NCC(=O)O [Darinaparsin] + NC(=O)Nc1cc(-c2cccc(F)c2)sc1C(=O)N[C@H]1CCCNC1 [AZD7762] (first compound 0.4 µM, partner dose 0.02 µM) | 92.5% | 107% | 104% | 99% | 103% | 114% | 144% | 83.6% | 121% | 118% | 102% | 124% | 105% | 79.5% | 115% | 101% | 101% | 92.6% | 83.5% |
| C[As](C)SC[C@H](NC(=O)CC[C@H](N)C(=O)O)C(=O)NCC(=O)O [Darinaparsin] + COc1cc(Nc2ncc(F)c(Nc3ccc4c(n3)NC(=O)C(C)(C)O4)n2)cc(OC)c1OC [Tamatinib] (first compound 0.4 µM, partner dose 0.4 µM) | 65.4% | 85.7% | 86% | 96.8% | 76.9% | 99% | 68.6% | 59.5% | 92% | 91.5% | 81.9% | 83.7% | 116% | 64.4% | 96.7% | 83.5% | 90.5% | 65.5% | 90.2% |
| Cn1cc(C2=C(c3cn(C4CCN(Cc5ccccn5)CC4)c4ccccc34)C(=O)NC2=O)c2ccccc21 [Enzastaurin] + O=C(O)C(=O)Nc1sc2c(c1C(=O)O)CCNC2 [TCS401] (first compound 0.8 µM, partner dose 1.66667 µM) | 106% | 92.2% | 119% | 95.8% | 104% | 104% | 91.9% | 98.7% | 98.4% | 95.2% | 102% | 88.8% | 71.5% | 100% | 99.3% | 114% | 97.2% | 99% | 109% |
| N.N.[Cl][Pt][Cl] [cisplatin] + COc1cc(Nc2ncc(F)c(Nc3ccc4c(n3)NC(=O)C(C)(C)O4)n2)cc(OC)c1OC [Tamatinib] (first compound 1.6 µM, partner dose 0.4 µM) | 73.6% | 70% | 106% | 88.4% | 97.4% | 98.3% | 97.6% | 70.1% | 80.7% | 94.3% | 95.5% | 92.1% | 60.2% | 74.7% | 98.4% | 82.4% | 85.5% | 82.9% | 86.2% |
| C[As](C)SC[C@H](NC(=O)CC[C@H](N)C(=O)O)C(=O)NCC(=O)O [Darinaparsin] + O=C(CCCCCCC(=O)Nc1ccccc1)NO [vorinostat] (first compound 0.4 µM, partner dose 0.08 µM) | 106% | 80% | 93.2% | 109% | 108% | 92.9% | 98.5% | 90.8% | 100% | 122% | 100% | 109% | 98.4% | 97% | 103% | 121% | 103% | 93.5% | 91% |
| Cn1cc(C2=C(c3cn(C4CCN(Cc5ccccn5)CC4)c4ccccc34)C(=O)NC2=O)c2ccccc21 [Enzastaurin] + Cc1cc(SCc2sc(-c3ccc(C(F)(F)F)c(F)c3)nc2C)ccc1OCC(=O)O [GW0742] (first compound 0.8 µM, partner dose 2 µM) | 109% | 127% | 103% | 96.2% | 105% | 103% | 93.5% | 114% | 91.4% | 98.1% | 100% | 84.4% | 94.9% | 87.5% | 97.3% | 129% | 98.7% | 105% | 98.4% |
| N.N.[Cl][Pt][Cl] [cisplatin] + O=C(CCCCCCC(=O)Nc1ccccc1)NO [vorinostat] (first compound 1.6 µM, partner dose 0.08 µM) | 105% | 84.7% | 108% | 103% | 100% | 90.5% | 90% | 49.6% | 89.7% | 105% | 93.8% | 93.5% | 112% | 76.7% | 92.7% | 109% | 91.2% | 95% | 89.8% |
| N.N.[Cl][Pt][Cl] [cisplatin] + CO[C@@H]1[C@H](N(C)C(=O)c2ccccc2)C[C@H]2O[C@]1(C)n1c3ccccc3c3c4c(c5c6ccccc6n2c5c31)C(=O)NC4 [Midostaurin] (first compound 1.6 µM, partner dose 0.08 µM) | 91.1% | 93.9% | 99.8% | 90.3% | 98.1% | 85% | 91.7% | 75.4% | 86.9% | 94% | 83.2% | 77.4% | 104% | 83.3% | 75.9% | 112% | 78.9% | 86.4% | 101% |
| N.N.[Cl][Pt][Cl] [cisplatin] + Cn1cc(/C=C2\C(=O)Nc3cccnc32)c2ccccc21 [GW441756] (first compound 1.6 µM, partner dose 0.4 µM) | 100% | 87.2% | 77.9% | 110% | 99.5% | 92.3% | 50.9% | 81.3% | 91.6% | 91.9% | 78.7% | 93% | 97.6% | 88.5% | 97.8% | 95.7% | 82.6% | 94% | 74.9% |
| N.N.[Cl][Pt][Cl] [cisplatin] + CC(C)CCN1c2nc(Nc3cc(F)c(O)c(F)c3)ncc2N(C)C(=O)C1C [BID1870] (first compound 1.6 µM, partner dose 0.2 µM) | 98.5% | 104% | 123% | 93.2% | 103% | 105% | 101% | 96.1% | 103% | 109% | 87.9% | 101% | 102% | 79.8% | 101% | 105% | 101% | 115% | 95.4% |
| Cn1cc(C2=C(c3cn(C4CCN(Cc5ccccn5)CC4)c4ccccc34)C(=O)NC2=O)c2ccccc21 [Enzastaurin] + CO[C@@H]1[C@H](N(C)C(=O)c2ccccc2)C[C@H]2O[C@]1(C)n1c3ccccc3c3c4c(c5c6ccccc6n2c5c31)C(=O)NC4 [Midostaurin] (first compound 0.8 µM, partner dose 0.08 µM) | 94.3% | 72.3% | 81.4% | 92.5% | 92.8% | 86.1% | 97.9% | 92.4% | 93.8% | 94.6% | 86.3% | 90.7% | 80% | 106% | 91.5% | 95.4% | 84.7% | 62.3% | 84% |
| Cn1cc(C2=C(c3cn(C4CCN(Cc5ccccn5)CC4)c4ccccc34)C(=O)NC2=O)c2ccccc21 [Enzastaurin] + CCc1ccc(CCOc2ccc(CC3SC(=O)NC3=O)cc2)nc1 [pioglitazone] (first compound 0.8 µM, partner dose 2 µM) | 99.3% | 103% | 107% | 95.8% | 106% | 113% | 108% | 73.3% | 110% | 99.1% | 108% | 99.4% | 106% | 106% | 111% | 122% | 105% | 128% | 114% |
| N.N.[Cl][Pt][Cl] [cisplatin] + COc1ccc(COc2ccc(Cc3cnc(N)nc3N)cc2OC)cc1 [GW2580] (first compound 1.6 µM, partner dose 1 µM) | 93.1% | 122% | 116% | 104% | 96.9% | 93.6% | 108% | 136% | 101% | 100% | 93.5% | 106% | 110% | 97.1% | 114% | 116% | 110% | 96.5% | 115% |
